# Data published in the supplement of paper PMC8728848.
# Some of the results follow.
# Experiments:
# Experiment in all cases: glycan array binding signal (z-score within array); higher = stronger binding
# Settings in all cases: glycan notation: IUPAC condensed, linker removed
# [1] = biological target: Neu5Ac(a2-3)Gal(b1-4)GlcNAc(b1-2)Man(a1-3)[Neu5Ac(a2-6)Gal(b1-4)GlcNAc(b1-2)Man(a1-6)]Man(b1-4)GlcNAc(b1-4)GlcNAc
# Method in brief: (§1)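 Glycan array data were curated from 3228 arrays in the Consortium for Functional Glycomics database and kept only where the protein sequence was available. Glycan names were converted to IUPAC-condensed notation, and columns mapping to the same glycan were averaged. The binding signal is a within-array Z-score, averaged across arrays of the same protein sequence at different concentrations or buffers and across linkers. Negative Z-scores can be read as non-binding.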
# [2] = biological target: Neu5Ac(a2-3)Gal(b1-4)GlcNAc(b1-2)[Neu5Ac(a2-3)Gal(b1-4)GlcNAc(b1-4)]Man(a1-3)[GlcNAc(b1-4)][Neu5Ac(a2-3)Gal(b1-4)GlcNAc(b1-2)[Neu5Ac(a2-3)Gal(b1-4)GlcNAc(b1-6)]Man(a1-6)]Man(b1-4)GlcNAc(b1-4)GlcNAc
# Method in brief: as §1
# [3] = biological target: Neu5Ac(a2-3)Gal(b1-4)GlcNAc(b1-2)[Neu5Ac(a2-3)Gal(b1-4)GlcNAc(b1-4)]Man(a1-3)[GlcNAc(b1-4)][Neu5Ac(a2-3)Gal(b1-4)GlcNAc(b1-4)Man(a1-6)]Man(b1-4)GlcNAc(b1-4)GlcNAc
# Method in brief: as §1
# [4] = biological target: Neu5Ac(a2-3)Gal(b1-4)GlcNAc(b1-2)[Neu5Ac(a2-3)Gal(b1-4)GlcNAc(b1-6)]Man(a1-6)[Neu5Ac(a2-3)Gal(b1-4)GlcNAc(b1-2)Man(a1-3)][GlcNAc(b1-4)]Man(b1-4)GlcNAc(b1-4)GlcNAc
# Method in brief: as §1
# [5] = biological target: Neu5Ac(a2-3)Gal(b1-4)GlcNAc(b1-3)Gal
# Method in brief: as §1
# [6] = biological target: Neu5Ac(a2-3)Gal(b1-4)GlcNAc(b1-3)Gal(b1-3)GlcNAc
# Method in brief: as §1
# [7] = biological target: Neu5Ac(a2-3)Gal(b1-4)GlcNAc(b1-3)Gal(b1-4)GlcNAc
# Method in brief: as §1
# [8] = biological target: Neu5Ac(a2-3)Gal(b1-4)GlcNAc(b1-3)Gal(b1-4)GlcNAc(b1-2)Man(a1-3)[Neu5Ac(a2-3)Gal(b1-4)GlcNAc(b1-3)Gal(b1-4)GlcNAc(b1-2)Man(a1-6)]Man(b1-4)GlcNAc(b1-4)GlcNAc
# Method in brief: as §1
# [9] = biological target: Neu5Ac(a2-3)Gal(b1-4)GlcNAc(b1-3)Gal(b1-4)GlcNAc(b1-3)Gal(b1-4)GlcNAc
# Method in brief: as §1
# [10] = biological target: Neu5Ac(a2-3)Gal(b1-4)GlcNAc(b1-3)Gal(b1-4)GlcNAc(b1-3)Gal(b1-4)GlcNAc(b1-2)Man(a1-3)[Neu5Ac(a2-3)Gal(b1-4)GlcNAc(b1-3)Gal(b1-4)GlcNAc(b1-3)Gal(b1-4)GlcNAc(b1-2)Man(a1-6)]GalNAc
# Method in brief: as §1
# [11] = biological target: Neu5Ac(a2-3)Gal(b1-4)GlcNAc(b1-3)Gal(b1-4)GlcNAc(b1-3)GalNAc
# Method in brief: as §1
# [12] = biological target: Neu5Ac(a2-3)Gal(b1-4)GlcNAc(b1-3)Gal(b1-4)GlcNAc(b1-3)[Neu5Ac(a2-3)Gal(b1-4)GlcNAc(b1-3)Gal(b1-4)GlcNAc(b1-6)]GalNAc
# Method in brief: as §1
# [13] = biological target: Neu5Ac(a2-3)Gal(b1-4)GlcNAc(b1-3)Gal(b1-4)GlcNAc(b1-6)[Gal(b1-3)]GalNAc
# Method in brief: as §1
# [14] = biological target: Neu5Ac(a2-3)Gal(b1-4)GlcNAc(b1-3)Gal(b1-4)[Fuc(a1-3)]GlcNAc
# Method in brief: as §1
# [15] = biological target: Neu5Ac(a2-3)Gal(b1-4)GlcNAc(b1-3)GalNAc
# Method in brief: as §1
# [16] = biological target: Neu5Ac(a2-3)Gal(b1-4)GlcNAc(b1-3)[Neu5Ac(a2-3)Gal(b1-4)GlcNAc(b1-6)]GalNAc
# Method in brief: as §1
# [17] = biological target: Neu5Ac(a2-3)Gal(b1-4)GlcNAc(b1-6)GalNAc
# Method in brief: as §1
# [18] = biological target: Neu5Ac(a2-3)Gal(b1-4)GlcNAc(b1-6)[Gal(b1-3)]GalNAc
# Method in brief: as §1
# [19] = biological target: Neu5Ac(a2-3)Gal(b1-4)GlcNAc(b1-6)[Neu5Ac(a2-3)Gal(b1-3)]GalNAc
# Method in brief: as §1
# [20] = biological target: Neu5Ac(a2-3)Gal(b1-4)GlcNAc6S
# Method in brief: as §1
# [21] = biological target: Neu5Ac(a2-3)Gal(b1-4)[Fuc(a1-3)]GlcNAc
# Method in brief: as §1
# [22] = biological target: Neu5Ac(a2-3)Gal(b1-4)[Fuc(a1-3)]GlcNAc(b1-2)Man
# Method in brief: as §1
# [23] = biological target: Neu5Ac(a2-3)Gal(b1-4)[Fuc(a1-3)]GlcNAc(b1-3)Gal
# Method in brief: as §1
# [24] = biological target: Neu5Ac(a2-3)Gal(b1-4)[Fuc(a1-3)]GlcNAc(b1-3)Gal(b1-4)GlcNAc
# Method in brief: as §1
# [25] = biological target: Neu5Ac(a2-3)Gal(b1-4)[Fuc(a1-3)]GlcNAc(b1-3)Gal(b1-4)[Fuc(a1-3)]GlcNAc(b1-3)Gal(b1-4)[Fuc(a1-3)]GlcNAc
# Method in brief: as §1
# [26] = biological target: Neu5Ac(a2-3)Gal(b1-4)[Fuc(a1-3)]GlcNAc(b1-3)GalNAc
# Method in brief: as §1
# [27] = biological target: Neu5Ac(a2-3)Gal(b1-4)[Fuc(a1-3)]GlcNAc(b1-6)[Gal(b1-3)]GalNAc
# Method in brief: as §1
# [28] = biological target: Neu5Ac(a2-3)Gal(b1-4)[Fuc(a1-3)]GlcNAc(b1-6)[Neu5Ac(a2-3)Gal(b1-3)]GalNAc
# Method in brief: as §1
# [29] = biological target: Neu5Ac(a2-3)Gal(b1-4)[Fuc(a1-3)]GlcNAc6S
# Method in brief: as §1
# [30] = biological target: Neu5Ac(a2-3)Gal6S(b1-4)GlcNAc
# Method in brief: as §1
# [31] = biological target: Neu5Ac(a2-3)Gal6S(b1-4)[Fuc(a1-3)]GlcNAc
# Method in brief: as §1
# Neu5Ac(a2-3)GalNAc = biological target: Neu5Ac(a2-3)GalNAc
# Method in brief: as §1
# [32] = biological target: Neu5Ac(a2-3)GalNAc(b1-4)GlcNAc
# Method in brief: as §1
# [33] = biological target: Neu5Ac(a2-3)[GalNAc(b1-4)]Gal(b1-4)Glc
# Method in brief: as §1
# [34] = biological target: Neu5Ac(a2-3)[GalNAc(b1-4)]Gal(b1-4)GlcNAc
# Method in brief: as §1
# [35] = biological target: Neu5Ac(a2-3)[GalNAc(b1-4)]Gal(b1-4)GlcNAc(b1-3)GalNAc
# Method in brief: as §1
# [36] = biological target: Neu5Ac(a2-3)[Neu5Ac(a2-6)]GalNAc
# Method in brief: as §1
# Neu5Ac(a2-6)Gal = biological target: Neu5Ac(a2-6)Gal
# Method in brief: as §1
# [37] = biological target: Neu5Ac(a2-6)Gal(b1-3)GlcNAc(b1-3)[Gal(b1-4)GlcNAc(b1-6)]Gal(b1-4)Glc
# Method in brief: as §1
# Neu5Ac(a2-6)Gal(b1-4)Glc = biological target: Neu5Ac(a2-6)Gal(b1-4)Glc
# Method in brief: as §1
# [38] = biological target: Neu5Ac(a2-6)Gal(b1-4)GlcNAc
# Method in brief: as §1
# [39] = biological target: Neu5Ac(a2-6)Gal(b1-4)GlcNAc(b1-2)Man
# Method in brief: as §1
# [40] = biological target: Neu5Ac(a2-6)Gal(b1-4)GlcNAc(b1-2)Man(a1-3)Man(b1-4)GlcNAc(b1-4)GlcNAc
# Method in brief: as §1
# [41] = biological target: Neu5Ac(a2-6)Gal(b1-4)GlcNAc(b1-2)Man(a1-3)[Gal(b1-4)GlcNAc(b1-2)Man(a1-6)]Man(b1-4)GlcNAc(b1-4)GlcNAc
# Method in brief: as §1
# [42] = biological target: Neu5Ac(a2-6)Gal(b1-4)GlcNAc(b1-2)Man(a1-3)[GlcNAc(b1-2)Man(a1-6)]Man(b1-4)GlcNAc(b1-4)GlcNAc
# Method in brief: as §1
binder,measurement,setting,value
"CGL (Crenomytilus grayanus), H2FH31 (protein) MTTFLIKHKASGKFLHPYGGSSNPANNTKLVLHSDIHERMYFQFDVVDERWGYIKHVASGKIVHPYGGQANPPNETNMVLHQDRHDRALFAMDFFNDNIMHKGGKYIHPKGGSPNPPNNTETVIHGDKHAAMEFIFVSPKNKDKRVLVYA",glycan array binding signal (z-score),[1],-0.439
same,glycan array binding signal (z-score),[2],-0.348
same,glycan array binding signal (z-score),[3],-0.331
same,glycan array binding signal (z-score),[4],-0.326
same,glycan array binding signal (z-score),[5],-0.435
same,glycan array binding signal (z-score),[6],-0.425
same,glycan array binding signal (z-score),[7],-0.25
same,glycan array binding signal (z-score),[8],-0.345
same,glycan array binding signal (z-score),[9],-0.356
same,glycan array binding signal (z-score),[10],-0.26
same,glycan array binding signal (z-score),[11],-0.286
same,glycan array binding signal (z-score),[12],-0.302
same,glycan array binding signal (z-score),[13],-0.35
same,glycan array binding signal (z-score),[14],-0.28
same,glycan array binding signal (z-score),[15],-0.272
same,glycan array binding signal (z-score),[16],-0.248
same,glycan array binding signal (z-score),[17],-0.43
same,glycan array binding signal (z-score),[18],-0.37
same,glycan array binding signal (z-score),[19],-0.386
same,glycan array binding signal (z-score),[20],-0.278
same,glycan array binding signal (z-score),[21],-0.389
same,glycan array binding signal (z-score),[22],-0.429
same,glycan array binding signal (z-score),[23],-0.349
same,glycan array binding signal (z-score),[24],-0.191
same,glycan array binding signal (z-score),[25],-0.448
same,glycan array binding signal (z-score),[26],-0.236
same,glycan array binding signal (z-score),[27],-0.345
same,glycan array binding signal (z-score),[28],-0.288
same,glycan array binding signal (z-score),[29],-0.328
same,glycan array binding signal (z-score),[30],-0.369
same,glycan array binding signal (z-score),[31],-0.428
same,glycan array binding signal (z-score),Neu5Ac(a2-3)GalNAc,-0.335
same,glycan array binding signal (z-score),[32],-0.345
same,glycan array binding signal (z-score),[33],-0.429
same,glycan array binding signal (z-score),[34],-0.361
same,glycan array binding signal (z-score),[35],-0.239
same,glycan array binding signal (z-score),[36],-0.341
same,glycan array binding signal (z-score),Neu5Ac(a2-6)Gal,-0.346
same,glycan array binding signal (z-score),[37],-0.329
same,glycan array binding signal (z-score),Neu5Ac(a2-6)Gal(b1-4)Glc,-0.342
same,glycan array binding signal (z-score),[38],-0.341
same,glycan array binding signal (z-score),[39],-0.404
same,glycan array binding signal (z-score),[40],-0.331
same,glycan array binding signal (z-score),[41],-0.221
same,glycan array binding signal (z-score),[42],-0.374
